Data reported in PubChem BioAssay AID686979 (National Center for Advancing Translational Sciences (NCATS), 2013).
About 50,000 (12%) of roughly 420,000 compounds were called active. Inconclusive means that the source gave no clear call. Such entries were picked first, then a sample of the others. Calls follow the shape of the dose curve; as a rule, active = well fitted inhibition curve with a large enough effect; inconclusive = small, poorly fitted or top-dose-only effect; inactive = flat fitted curve, though single readings scatter. No potency is given beside an inconclusive call; the fits are too rough.
% is scaled to controls: 0 for no effect and ±100 for the full control effect; potency is read from the fitted curve at half-maximal effect; tags tell the direction and shape of the fitted curve.

Assay: qHTS for Inhibitors of human tyrosyl-DNA phosphodiesterase 1 (TDP1): qHTS in cells in presence of CPT; also: nearly all actives have a fitted effect of over 55% in size
Settings: chicken DT40 Tdp1-/-;hTDP1 cells + 20 nM CPT, ATP luminescence, 48 h; activity change, negative = growth inhibition: at 46.2 µM (top of the series) unless noted
In short: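 Chicken DT40 Tdp1-/- cells complemented with human TDP1, 400 cells/well, exposed to compounds plus 20 nM camptothecin for at least 48 h at 37 C; viability read as ATP content by CellTiter-Glo luminescence.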
With `Cc1cc(Nc2ccccc2C(=O)O)n(-c2ccc([N+](=O)[O-])cc2)n1` the Potency was “inactive”.
In the case of `COCCCNC(=O)c1cc(Cc2ccccc2)sc1N`, the Potency is reported as inconclusive [inhibitor, single point].
With `Cc1cccc(CCNC(=O)C2CCCN(S(=O)(=O)c3cccc4nsnc34)C2)c1` (stereo not drawn) the Potency was inconclusive [inhibitor, single point].
For `CCOc1ccc(Nc2cc(C)nc3c(C)cccc23)cc1`, the Potency was inconclusive [inhibitor, single point].
For `O=C1CC(C(=O)Nc2ccc(Cl)cc2[N+](=O)[O-])C2(CCCCC2)O1` (stereo not drawn), the Potency was “inactive”.
For `N=c1c(S(=O)(=O)c2ccccc2)cc2c(=O)n3ccccc3nc2n1CCCN1CCOCC1`, the Potency was “inactive”.
With `CCN1C(=NCCc2ccccn2)N[C@@H](c2cccc(C(F)(F)F)c2)C(C(=O)OC)=C1C` the Potency was active: 11.2 µM.
With `O=C1CC(N2CCC(O)CC2)C(=O)N1c1ccc(Br)cc1` (stereo not drawn) the Potency was inconclusive [inhibitor, single point].
With `COc1ccc(OC)c(N/C(=N/C(=S)Nc2ccccc2)Nc2nc(C)cc(C)n2)c1` the Potency was inconclusive [inhibitor, single point].
For `Cc1[nH]c2ccccc2c1/C=N/NC(=O)c1cccc(S(=O)(=O)Nc2ccccc2Cl)c1`, the Potency was “inactive”.
In the case of `COc1ccccc1N1CCN(C(c2ccc(Cl)cc2)c2nnc(-c3cccc(F)c3)o2)CC1` (stereo not drawn), the Potency is reported as inconclusive [inhibitor, single point].
In the case of `O=C([C@@H]1CCCN1C(=O)c1cccs1)N1CCN(S(=O)(=O)c2cccc(F)c2)CC1`, the Potency is reported as “inactive”.
With `CCc1nnc(NCC(=O)N2CCc3ccccc32)s1` the Potency was inconclusive [inhibitor, single point].
For `O=C(Nc1nc(-c2cccnc2)cs1)c1cccc([N+](=O)[O-])c1`, the Potency was “inactive”.
With `CCOC(=O)N1CCN(C(=O)Cc2ccccc2OC)CC1` the Potency was “inactive”.
For `COc1ccc(CN2CCN(CCc3ccccc3)C(CCO)C2)c(Cl)c1OC` (stereo not drawn), the Potency was inconclusive [inhibitor, partial curve].
In the case of `Cc1oc(-c2ccc(Cl)cc2)cc1C(=O)/C(C#N)=C/Nc1cccc(OC(F)(F)F)c1`, the Potency is reported as inconclusive [inhibitor, partial curve].
In the case of `CC1CCCN(CCS(=O)(=O)c2ccccc2)C1` (stereo not drawn), the Potency is reported as “inactive”.
With `FC(F)(F)c1cccc(NC(=S)NC2CCCC2)c1` the Potency was inconclusive [inhibitor, single point].
For `C=CCc1c(C)nc(-c2ccccc2)nc1Nc1ccccc1O`, the Potency was inconclusive [inhibitor, single point].
In the case of `CCCSc1oc(-c2ccco2)nc1S(=O)(=O)c1ccc(Cl)cc1`, the Potency is reported as inconclusive [inhibitor, single point].
In the case of `CCOC(=O)c1ccccc1NC(=O)c1nc2nccc(C)n2n1`, the Potency is reported as inconclusive [inhibitor, partial curve, poor fit].
With `COc1ccc(CCn2c(-c3ccc(Cl)cc3)n[nH]c2=S)cc1OC` the activity change, negative = growth inhibition was inconclusive: -32.7% [inhibitor].
In the case of `FC(F)Sc1ccc(-n2cc(-c3ccc(Cl)cc3)[n+]3c2CCC3)cc1`, the Potency is reported as active: 9.2 µM.
In the case of `Cc1oc(-c2ccccc2F)nc1CS(=O)CC(=O)NCc1ccc(F)cc1` (stereo not drawn), the Potency is reported as inconclusive [inhibitor, single point].
For `NC(=O)c1nsc(C(=O)N(Cc2ccco2)C(C(=O)NCc2ccc(F)cc2)c2ccc(O)cc2)c1N` (stereo not drawn), the Potency was active: 16.4 µM.
For `Cc1ccc(Nc2nc(CSc3nnc(-c4ccncc4)n3-c3ccccc3C)cs2)cc1`, the Potency was active: 13 µM.
In the case of `COc1ccc(CC(=O)Nc2sc3c(c2C(=O)Nc2cccc(C)c2)CCCCC3)cc1`, the Potency is reported as inconclusive [inhibitor, single point].
In the case of `O=C(Cn1ncc2c([nH]c3ccccc32)c1=O)N1CCN(c2ccccn2)CC1`, the activity change, negative = growth inhibition is reported as inconclusive: -33.4% [inhibitor].
In the case of `COc1ccccc1CNC(=O)c1cnc(N(C)C)nc1`, the Potency is reported as inconclusive [inhibitor, single point].
With `CC1(C)CC(=O)C(C(C2=C(O)CC(C)(C)CC2=O)c2ccc([N+](=O)[O-])cc2)C(=O)C1` (stereo not drawn) the Potency was inconclusive [inhibitor, single point].
In the case of `O=C(NCC1CCCCC1)C1CCC(=O)N(CCc2cccc(F)c2)C1` (stereo not drawn), the Potency is reported as “inactive”.
In the case of `S=C(Nc1ccccn1)Nc1ccccc1Cl`, the Potency is reported as inconclusive [inhibitor, single point].
For `CCOc1ccc(C(=O)Nc2nc(-c3ccc(Br)cc3)ns2)cc1`, the activity change, negative = growth inhibition was inconclusive: -33.3% [inhibitor].
For `COc1ccc(S(=O)(=O)Nc2ccc3c(c2)C(=O)N([C@H](C)CO)C[C@H](C)[C@@H](CN(C)S(=O)(=O)c2ccc(OC)cc2)O3)cc1`, the Potency was inconclusive [inhibitor, single point].
With `COc1ccc(Cl)cc1N1C(=NC(=O)C2CCCCC2)SC2CS(=O)(=O)CC21` (stereo not drawn) the Potency was “inactive”.
With `O=C(Cc1ccccc1)Nc1ncccn1` the Potency was “inactive”.
For `COc1ccc(C2=CC(=O)CC(c3ccccc3)C2)cc1` (stereo not drawn), the Potency was “inactive”.
In the case of `CCc1cccc2c1NC(=O)C2=O`, the Potency is reported as “inactive”.
With `CCOC(=O)Nc1ccc2c(c1)C(=NO)c1ccccc1-2` the Potency was active: 18.4 µM.
With `CCN(CC)S(=O)(=O)c1cccc(C(=O)NCCc2ccccc2)c1` the Potency was inconclusive [inhibitor, partial curve].
For `c1ccc(Sc2cccc3ccccc23)c(CNC2=NCCN2)c1`, the Potency was active: 13 µM.
With `c1ccc(Cc2nn3c(Cn4nnc5ccccc54)nnc3s2)cc1` the Potency was inconclusive [inhibitor, single point].
With `C=CCc1cc(Cl)ccc1OCCNCCCOC` the Potency was inconclusive [inhibitor, single point].
With `COc1ccc(NC(=O)Cn2c(SCc3ccc(F)cc3)nc3cccnc32)c(OC)c1` the Potency was inconclusive [inhibitor, single point].
With `Cc1cccc(Oc2sc(C(=O)c3ccccc3)c(N)c2C#N)c1` the Potency was inconclusive [inhibitor, single point].
In the case of `Cc1ccc2c(=O)cc(C(=O)Nc3ccc(S(=O)(=O)N4CCCCC4)cc3)oc2c1`, the Potency is reported as “inactive”.
With `COC(=O)C(NC(=O)CCc1c(C)nc2cc(-c3cccc(F)c3)nn2c1C)C(C)C` (stereo not drawn) the Potency was inconclusive [inhibitor, single point].
With `COc1cccc(CN2CCCC(c3nc(C)ncc3-c3ccc(F)cc3)C2)c1OC` (stereo not drawn) the Potency was inconclusive [inhibitor, single point].
In the case of `COC(=O)c1ccccc1NC(=O)CCC(=O)N1CC(C)Sc2ccccc21` (stereo not drawn), the Potency is reported as active: 16.4 µM.
With `Cc1nnc(SCc2cc(=O)oc3ccc4ccccc4c23)n1Cc1ccccc1` the activity change, negative = growth inhibition was inconclusive: -32.1% [inhibitor].
With `CCN(CCn1cccn1)C(=O)CCc1nnc(C2(c3ccc(Cl)cc3)CCC2)o1` the Potency was “inactive”.
In the case of `COc1ccccc1NS(=O)(=O)c1ccc(C(=O)NCC(c2cccs2)N2CCOCC2)cc1` (stereo not drawn), the Potency is reported as inconclusive [inhibitor, partial curve, poor fit].
With `C[n+]1c2n(c3ccccc31)N=C(c1ccc(Br)cc1)CS2` the Potency was active: 0.651 µM.
In the case of `Cc1ccc(CS(=O)(=O)c2nsc(C)c2C#N)cc1`, the Potency is reported as “inactive”.
In the case of `CC(C)NC(=O)c1cc(-c2ccco2)nn1-c1ccc(Cl)cc1`, the Potency is reported as inconclusive [inhibitor, single point].
With `CCCCn1nc(C(=O)NC2CCCCC2)c2ccccc2c1=O` the Potency was inconclusive [inhibitor, partial curve].
In the case of `O=C(NCc1ccc2c(c1)OCO2)c1ccc(S(=O)(=O)C(F)F)cc1`, the Potency is reported as inconclusive [inhibitor, single point].
With `S=c1[nH]nc(COc2ccccc2)n1/N=C/c1cccc(Br)c1` the Potency was inconclusive [inhibitor, single point].
In the case of `CC(C)(C)NC1=CC(=O)OC12CCCCC2`, the Potency is reported as “inactive”.
In the case of `O=C1C2ON(c3ccccc3)C(c3ccncc3)C2C(=O)N1c1ccccc1` (stereo not drawn), the Potency is reported as inconclusive [inhibitor, full curve, poor fit].
In the case of `CCOC(=O)CSc1cc(CSc2ccccc2)nc(-c2ccccc2)n1`, the Potency is reported as “inactive”.
For `Cc1cnn(CCC(=O)NNC(=S)Nc2ccc(F)cc2)c1`, the Potency was “inactive”.
With `Cc1ccc(N/N=C(/Sc2nnnn2-c2ccccc2)C(=O)c2ccccc2)cc1` the Potency was active: 29.1 µM.
For `OCCC1CN(Cc2cccn2-c2ccccn2)CCN1Cc1ccccc1` (stereo not drawn), the Potency was “inactive”.
In the case of `CCOC(=O)C1(C)CCCN1C(=O)c1ccc(OC)c(OC)c1` (stereo not drawn), the Potency is reported as “inactive”.
For `O=C(c1cc2c([nH]c1=O)CCCC2)N1CCc2c([nH]c3ccccc23)C1c1ccccc1F` (stereo not drawn), the activity change, negative = growth inhibition was inconclusive: -31.7% [inhibitor].
With `CC(C)(C)n1nnnc1C(c1cc2ccccc2o1)N1CCN(C(=O)OCc2ccccc2)CC1` (stereo not drawn) the Potency was inconclusive [inhibitor, single point].
For `CC1=NN(c2ccc(C)cc2)C(=O)/C1=C\c1ccc(Br)s1`, the Potency was inconclusive [inhibitor, single point].
In the case of `Cc1ccc(NC(=O)CSc2cn(CC(=O)N3CCOCC3)c3ccccc23)cc1Cl`, the Potency is reported as active: 20.6 µM.
With `COc1ccc(-n2cc(CNC(C)c3ccncn3)c(-c3cccc(F)c3)n2)cc1` (stereo not drawn) the Potency was inconclusive [inhibitor, single point].
In the case of `CCOC(=O)C[C@@H]1OC2CCCCC2N1S(=O)(=O)c1ccc(C)cc1` (stereo partly drawn), the Potency is reported as active: 25.9 µM.
For `Cc1ccc(SCC(=O)Nc2c(Br)cnn2C)cc1`, the Potency was inconclusive [inhibitor, partial curve, poor fit].
